Test results taken from the supplement of paper PMC10126150.
Sequences with one replicate were seen in a single cluster, so their values are uncertain.

Test system: ATP
Assay: switch fluorescence ratio, 500 uM ATP over buffer (Cy3 cluster intensity, sum of 5 cycles each) (fold (ratio)); higher = stronger signal-on switching upon ATP binding; sequences stand for … in TCGTCGGCAGCGTCAGATGTGTATAAGAGACAGTTTTTTTTTTTTTTTTTTTTTTTTT…TC
Conditions: aptamer strand: ATP DNA aptamer (quencher-CACCTGGGGGAGTATTGCGGAGGAAGG + anchor), 100 nM annealed; ATP concentration: 500 uM; one replicate
In short: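 Cy3-labelled switching-strand clusters on a modified Illumina MiSeq flow-cell were annealed to 100 nM quencher-labelled ATP aptamer, imaged in selection buffer, then imaged after 15 min with 500 uM ATP at 22 °C. Five buffer/ATP cycles ran, with NaOH stripping and re-annealing between them. The fluorescence ratio is summed target-cycle over summed buffer-cycle Cy3 intensity per cluster, averaged per switch-domain sequence. Clusters outside 100-1000 RFU were excluded.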
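Further: ATP exposure 15 min at 22 °C before imaging.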

Sequence | switch fluorescence ratio
ATGGTCTGG | 0.989
TCCGCCCTA | 5.21
CGGGATTTCA | 1
CGCTTTTTAT | 0.996
TACTCTGTTG | 1.01
AGATCTCAAT | 0.986
CGCGCCCCTC | 1.11
ATCCGCGGAG | 1.04
TAAGTGCTAT | 1.03
GAATTGTGCG | 0.954
TTCGGTACGG | 0.985
GATTGTGGCT | 1.01
AATAGGGGCG | 0.977
TGACAAAGCT | 1.05
CGTCCCTATA | 2.01
TATCTTATCG | 1
CACGTCTGTG | 0.991
GTCCGTGCTG | 1
TTCCAGGCAG | 1.05
TCGGCTAAAA | 1.04
GGAAGCCATA | 1.03
CCTCAAACCG | 1.24
GAACTGGCAC | 1.06
TTTAATTCGT | 0.998
CACGTATGTC | 0.973
TGTCGATAAT | 1.02

Sequence | switch fluorescence ratio
TCCTTGTTGG | 0.973
AGCAGGAACG | 1.02
ACGGGACCTG | 1.08
TAGGAGGAAG | 1.02
GCGCTTAT | 1.05
AAAATGCATG | 0.966
TAAGAGTTTT | 0.999
AGGGACCGAG | 0.977
TCCCCATGAG | 1.19
TGGTCTTGGT | 0.98
ACAAGGCTAG | 1.04
TCAGTGTAAT | 1.01
ATTGCTGAAT | 1.02
CTATAGTTCC | 1.09
TGTAGGTGGA | 0.964
CTTGCTAGCT | 1.02
CACAAGATGT | 0.987
CGTTTGGTGC | 0.999
TAGGTGCACT | 1.05
TGTAATACCA | 1.06
TATGCTTTT | 1.01
CAAATCTTGA | 0.968
AGAGGCTCGG | 1.01
TCTAGAGGAG | 1.01
ACAGTCGCGT | 1.06
TTAAGGAGTA | 1.01

Sequence | switch fluorescence ratio
GATACAGTGA | 1.01
GGGTTTGG | 0.973
GGGTCTAATC | 1.03
GGTTTGTCGG | 0.958
TCATGTAGA | 1.02
GGTCGAGTCT | 0.977
ACAGGGGT | 1.16
TCTGGAGCTG | 1.43
AGGAAGTAT | 1
GGTGTCGGG | 0.992
TTCGGGAATC | 1.07
AACAGGACGG | 1.07
TCTCCTTTAT | 1.29
ACCCATTGCC | 0.961
AAGTGTCAAT | 1.02
TTAGATTCCA | 1
CAGACGGGAT | 1.88
GGAGAGACGT | 1
ACGACGGTTT | 1.01
ATCAGTGCCT | 1.03
ATTGGTTCCT | 1
ACCATTTTGA | 1.01
AAAAAGAGCG | 0.923
TTATGGCAAA | 1.01
GACCATCGTG | 1.1
ATGGAAAGCT | 1.22

Sequence | switch fluorescence ratio
GCACGCAAGG | 1.3
CAGAGAACCA | 0.997
GGATTCGGTA | 1.01
TCAGGGTCGG | 1.01
AGATTACCGG | 1.01
TTGATGCGAT | 1.16
GGGCGTTCTA | 0.96
AAAGTTCTG | 0.978
CGGAGTCCTC | 1.04
TAATTCGCCG | 1.03
ACAGTGGCAG | 0.967
TAAGGCAGTT | 0.996
CATGTTGTTA | 0.978
TAAAGGATCT | 1
ACCTCGCTAA | 1.78
AAGTAGTCAG | 0.993
ATTTGCGT | 0.975
GCTCGGAGCT | 1.02
GTGGATTTGT | 0.939
GGTTACCATT | 0.985
CTTGTTACAT | 0.94
GCTAGCAAGT | 1.08
TTGTGGGTT | 0.979
GTTACCTACG | 1.59
CAAGTGGGAG | 1.01
TGTCACATCA | 1.04

Sequence | switch fluorescence ratio
TGTATTAATT | 1.03
TCAAGAAACG | 1.04
ATGCGAGGAG | 1.02
TTGCTAGGTG | 1.69
CCGGAACTTG | 1.02
GTGAGAAGCC | 0.971
AGTACTGCTG | 0.952
TGTATGAAAG | 0.955
TATATCGGGC | 0.971
ACGACCGGCC | 1.72
TGGATTTCAC | 1.05
ATTTATGATG | 0.974
ATCAGGCCTT | 0.994
TACTCTGTAC | 1.47
CACAAAGTTG | 0.973
TCCACTATTT | 1.04
CGAACGTTGG | 1.04
CTATGGGAT | 1.05
TGTATCAAGG | 0.978
ACCTAATGCA | 1.07
TGGTTAGCTG | 1.06
CGGACCGTAT | 0.968
AACCGACTCA | 2.06
CCCTTTGATT | 1.01
TATATGTTTC | 1.05
TTGCTTTGT | 0.976

Sequence | switch fluorescence ratio
GGCAGGTACG | 0.957
GGTTGCAATT | 1.39
TAAGCGCGG | 0.98
CGTGCCATTC | 1.03
ACGTTGGTCG | 1
TTTTTTCGTA | 0.996
CGTCCGGGTG | 2.15
CGGCACGTTC | 1.03
CTCTTGGCAC | 3.89
GTGATGCTGG | 0.979
GACGTAGGGG | 0.999
TGAGGCCGTT | 0.954
ATGCGGTTC | 1.05
AATTAAAAG | 1.04
TCTGGAGTGG | 1.03
CGGAATCTTA | 1.02
CGTATGCATT | 0.993
TCAATCACAC | 1.04
GGGCGTAATA | 1.04
AAGTCCGGCG | 1.02
CAGAAACGAG | 1.01
ACACACATCG | 1.21
AGTTCAGATA | 0.983
AAGAGGACTT | 0.985
ACCAACGGAG | 1.24
TCTCGCGCCG | 0.992

Sequence | switch fluorescence ratio
TGATGGTAG | 0.991
TCAGGGAAAG | 0.972
AATCCATTCC | 1.55
GCCGAAGGTT | 1
GTCGTAAGAC | 1.03
TCCCCGTGCG | 1.12
TTGGAGCATT | 1.92
GCTACCTGGG | 1
CACTCCAT | 0.984
ACTGGGATAA | 1.03
TCGCTATTCG | 1.03
CTAGGGACAC | 1.07
TGTGATTATC | 0.993
TAGTTTTGA | 0.984
ACAGAGCCTA | 0.975
CGTGTACAGG | 0.971
TTCGGCATAT | 4.66
GCCACCCAAA | 1
TGCCTCGGTG | 1.03
CCCCCCTTTC | 1.22
TAACAGGGCG | 1.01
GATCCCCAAC | 1.04
GCATAGAACC | 1.06
ACCGGCCGAG | 0.997
TAATACTCGA | 1.07
AGGACCACAT | 1.07

Sequence | switch fluorescence ratio
GTGGTACACA | 1.01
TTGTAATAGA | 1.76
TACCTTGCTC | 2.81
CTATGGACGC | 1.06
ATGGGTCGCC | 0.972
TATAAGCTTT | 0.993
TTCTCGCCGG | 1.22
AGGGGGCAG | 1.01
TATGAGGAAT | 0.974
AATTAGCAA | 1.68
GCACTCATTT | 1.06
CGTGATCCCA | 1.01
CTTTCTACGG | 1.26
TTATTGATGT | 1
AAGCTGGGTC | 0.976
ATCGAGACGG | 1.12
CAGAGTCTC | 1.24
AAAGGAAA | 0.997
CGGCACACTT | 0.973
